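How tested: cells in 96-well plates exposed to compound for 48 hours at five concentrations. GI50 = concentration required for 50% inhibition of growth.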 Certain results were filed several times, with different values. They are shown here; other results are not. There may be further records. For some of these results: The values listed for one entry are repeats across runs, samples, wells, individuals or studies. Brackets tell where a record comes from. A, B and so on number the origins entry by entry.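 The concentration for full growth arrest is given as TGI.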 For some of these results: A record mostly stands for its own series of concentrations, not given here; some values may only mark the edge of a range.
How the values were obtained:
Assay in all cases: NCI tumour cell line growth inhibition, 48 h
OVCAR-4 ovarian = tested on: OVCAR-4 ovarian
K-562 leukemia = tested on: K-562 leukemia
SNB-19 CNS = tested on: SNB-19 CNS
UO-31 renal = tested on: UO-31 renal
BT-549 breast = tested on: BT-549 breast
UACC-62 melanoma = tested on: UACC-62 melanoma
NCI/ADR-RES ovarian = tested on: NCI/ADR-RES ovarian

Structure (SMILES) | TGI (OVCAR-4 ovarian) | GI50 (K-562 leukemia) | TGI (SNB-19 CNS) | TGI (UO-31 renal) | TGI (BT-549 breast) | TGI (UACC-62 melanoma) | TGI (NCI/ADR-RES ovarian)
COc1ncc(-c2ccc3nccc(-c4ccnnc4)c3c2)cc1NS(=O)(=O)c1ccc(F)cc1F | > 10 µM [sample A, mean of 2 tests] and 718 nM [sample B, mean of 2 tests] | 16.7 nM [sample A, mean of 2 tests] and 307 nM [sample B, mean of 2 tests] | 1.04 µM [sample A, 1 test] and 18.3 µM [sample B, mean of 2 tests] | > 4.03 µM [sample A, mean of 2 tests] and 273 nM [sample B, mean of 2 tests] |  |  | 
CCOC(=O)c1[nH]c(Br)c(-c2ccc(Br)cc2)c1Br |  |  |  |  | 5.37 µM and 55.4 µM | 828 nM and 44.2 µM | 462 nM and 11 µM

— PubChem BioAssay (NCI)
